# Data as given in PubChem BioAssay AID463173 (ICCB-Longwood Screening Facility, Harvard Medical School, 2010).
# In all, about 52,000 compounds went through this assay and about 1,700 (3.3%) were called active. No stated cut-off is given here; in the data, active means survival mostly below about 52% (no sharp cut-off); inactive means mostly above about 56%. The list shows a part of the results.
# System: Wild type
# Assay: S. aureus survival, RN4220 and DeltatarO strains – OD600, teichoic acid synthesis inhibitors, primary screen (AID 463173)
# Details: S. aureus RN4220 wild type/DeltatarO growth, OD600, 18 h, stronger effect = lower value, screened at 18.75 µg/mL (by protocol)
row,Structure (SMILES),survival
1,COC(=O)COc1ccc(S(=O)(=O)N2CCCCC2)cc1C,inactive: 117%
2,CCOC(=O)C1=C(CS(=O)(=O)c2ccc(F)c(C)c2)NC(=O)NC1c1ccc(F)c(F)c1 (stereo not given),inactive: 92%
3,CC(=O)N1CCc2c(sc(NC(=O)CSc3ccc(C)cc3)c2-c2nc3ccccc3s2)C1,inactive: 76%
4,Cc1cc(C)c2c(n1)SCC(=O)N2CC(=O)Nc1c(C)cccc1C,inactive: 79%
5,Cc1cc(C)cc(NC(=O)Nc2c[nH]c(=O)[nH]c2=O)c1,inactive: 79%
6,CCn1c(CN2CCC(C)CC2)nc2cc(NC(=O)c3cccc([N+](=O)[O-])c3)ccc21,inactive: 85%
7,COc1ccc(OC)c(CCNc2ncnc3onc(C)c23)c1,inactive: 153%
8,CC(=O)Nc1nnc(C(C)C)s1,inactive: 103%
9,O=C(NC1(C(F)(F)F)N=C(c2ccccc2)N(C2CCCCC2)C1=O)c1ccccc1F (stereo not given),inactive: 70%
10,COc1ccc(NS(=O)(=O)c2cc3c4c(c2)CC(=O)N4CCC3)cc1Cl,inactive: 82%
11,CCS(=O)(=O)N1CCN(c2nc(C)nc3sc4c(c23)CCC(C)C4)CC1 (stereo not given),inactive: 96%
12,COc1ccc(-c2noc(CSc3nnc(-c4ccncc4)n3-c3cccc(C)c3)n2)cc1OC,inactive: 87%
13,COc1ccccc1NC(=O)Cn1c(SCC(=O)NCc2ccccc2)nc2ccccc21,inactive: 67%
14,Cc1cc(C)cc(NC(=O)NCC2CCN(Cc3cc(C)ccc3C)CC2)c1,inactive: 83%
15,CC(=O)Nc1ccc(-c2nnc3n(CC(C)C)c(=O)c4ccccc4n23)cc1,inactive: 88%
16,Cc1ccc(-c2cc(-c3coc4ccccc4c3=O)c3c(n2)-c2cc(Cl)ccc2OC3)cc1,inactive: 80%
17,COc1ccc(NC(=O)c2oc3ccc4c(c3c2C)C(=O)CC(C)(C)O4)cc1OC,inactive: 86%
18,CC1CCN(C(C(=O)O)c2ccccc2)CC1 (stereo not given),inactive: 97%
19,CCc1ccc(OCC2c3cc(OC)c(OC)cc3CCN2C(=O)Cc2ccc(OC)c(OC)c2)cc1 (stereo not given),inactive: 81%
20,COc1cc2c(cc1NC(=O)C(C)Oc1ccc(Cl)cc1Cl)oc1ccccc12 (stereo not given),inactive: 49%
21,COc1ccc(CCC(=O)NCCc2csc(-c3cccc(F)c3)n2)cc1,inactive: 68%
22,COc1ccc(NC(=O)CCCN2C(=O)C(c3ccccc3)Oc3cccnc32)cc1OC (stereo not given),inactive: 90%
23,COc1cc(-c2nnc(SCC(=O)N(C)C3CCCCC3)o2)cc(OC)c1OC,inactive: 85%

row,Structure (SMILES),survival
1,Cc1ccc(CCNC(=O)CCCn2nc(C)c3c(C)n(-c4ccc(C)cc4)nc3c2=O)cc1,inactive: 110%
2,Cc1ccc(OCC(=O)OCc2cc(=O)n3nc(C4CCCCC4)sc3n2)cc1,inactive: 129%
3,CCN(c1ncnc2c1c(-c1ccccc1)cn2-c1ccccc1)C1CCCCC1,inactive: 72%
4,Cc1cc(N2CCN(C)CC2)nc2ccc(NC(=O)Nc3ccccc3Cl)cc12,inactive: 72%
5,CCNc1c(NC(=O)c2ccccc2OCC)c(=O)oc2ccccc12,inactive: 90%
6,CSCCC(NC(=O)C1CCCCC1)C(=O)Nc1ccc(F)c(Cl)c1 (stereo not given),inactive: 69%
7,COc1ccc(N(C(=O)c2ccccc2C)S(=O)(=O)c2ccc3c(c2)n(C)c(=O)n3C)cc1,inactive: 67%
8,Cc1nc(N2CC(C)OC(C)C2)c2nnn(Cc3c(F)cccc3Cl)c2n1 (stereo not given),inactive: 101%
9,CCOc1ccccc1NS(=O)(=O)c1c(C(=O)OC)sc2cccc(F)c12,active: -3%
10,COc1ccc(OC)c(CCNC(=O)c2sc3nc4n(c(=O)c3c2C)CCCC4)c1,inactive: 76%
11,COc1ccc(N2CCN(S(C)(=O)=O)CC2)cc1,inactive: 100%
12,COc1ccc(C(=O)CC(=O)c2ccccc2O)cc1,inactive: 107%
13,COc1cccc(-c2nc(SC(C(C)=O)C(=O)N(C)C)c3c(=O)n(C)c(=O)n(C)c3n2)c1 (stereo not given),inactive: 66%
14,CCOC(=O)C1=C(CNCc2ccccc2)NC(=O)NC1c1ccc(C)cc1 (stereo not given),inactive: 90%
15,Cc1ccc(N2C(=O)[C@@H]3CSC(c4ccc(C(F)(F)F)cc4)N3C2=O)cc1 (stereo not given in full),inactive: 137%
16,Cc1ccc(S(=O)(=O)N2CCCc3cc(NC(=O)c4ccc(C(F)(F)F)cc4)ccc32)cc1,inactive: 110%
17,COc1ccc(-n2c(=O)c3c(C)c(C)sc3n(Cc3ccc(F)cc3)c2=O)c(OC)c1,inactive: 81%
18,O=C(Nc1ccc(F)cc1)c1cccc(N2CCCS2(=O)=O)c1,inactive: 84%
19,O=C(COC(=O)c1ccco1)Nc1nc2ccccc2s1,inactive: 108%
20,Cc1cc(=O)n(C(C)C(=O)NCc2ccccc2Cl)c2c1c(C)nn2-c1ccccc1 (stereo not given),inactive: 125%
21,CCOc1ccccc1NC(=O)C1CCN(S(=O)(=O)Cc2ccccc2)CC1,inactive: 80%
22,O=C(NC1CCCCC1)N(Cc1ccccc1)Cc1cc2cc3c(cc2[nH]c1=O)OCCO3,inactive: 128%
23,COc1cc(OC)c(C2C=C(c3ccc(C)cc3)Nc3c(C(=O)Nc4ccccc4)cnn32)cc1OC (stereo not given),inactive: 52%

row,Structure (SMILES),survival
1,Cc1ccc(C(C)C)c(OCC(=O)Nc2c(C(=O)c3ccc(F)cc3)oc3ccccc23)c1,inactive: 74%
2,Cc1cc(O)c(C(c2ccccc2Cl)N2CCCCC2)c(=O)n1Cc1ccco1 (stereo not given),inactive: 81%
3,CCn1cc(C(=O)NCc2ccccc2)c(=O)c2cc(S(=O)(=O)N3CCOCC3)ccc21,inactive: 81%
4,Cc1c2cnn(CC(=O)N3CCCCC3)c(=O)c2c(C)n1Cc1ccc(Cl)cc1,inactive: 84%
5,Cc1ccc(NC(=O)c2ccc3c(=O)n4nc(Nc5ccccc5C)sc4nc3c2)cc1C,inactive: 92%
6,CCc1ccc(C2N3CC4(C)CN2CC(c2ccccc2)(C3)C4=O)cc1 (stereo not given),inactive: 118%
7,O=C(NCCc1ccc(Cl)cc1)c1ccc2c(c1)N(Cc1ccc(F)cc1Cl)C(=O)CS2,inactive: 74%
8,CCOC(=O)C(C)NC(=O)c1cc2c(=O)[nH]c3ccc(C)cc3c2s1 (stereo not given),inactive: 68%
9,Cc1ccc(/C=C/c2onc(C)c2S(=O)(=O)N2CCC(C(=O)NCc3ccc(Cl)cc3)CC2)cc1,inactive: 92%
10,CC(NC(=O)c1ccc(N2Cc3ccccc3Oc3ncccc32)s1)c1ccccc1 (stereo not given),inactive: 70%
11,Cc1c(Cl)cccc1NC(=O)C(=O)NCCc1csc(-c2cccc(F)c2)n1,inactive: 71%
12,COc1ccc(-c2[nH]c(-c3ccccc3)nc2SCC(=O)Nc2ccc3c(c2)OCO3)cc1,inactive: 69%
13,CCn1c(CN2CCCCC2)nc2cc(NC(=O)COc3ccc([N+](=O)[O-])cc3)ccc21,inactive: 79%
14,CCCSc1nnc(CN2CCOCC2)n1C,inactive: 113%
15,COc1ccc(NC(=O)c2ccc(-c3cccc(Cl)c3C)o2)cc1,inactive: 44%
16,COc1ccc(-c2nc(CSc3nc4ncccc4[nH]3)c(C)o2)cc1OC,inactive: 93%
17,CC(NC(=O)Cc1ccc(NC(=O)N2CCCCc3ccccc32)cc1)c1ccccc1 (stereo not given),inactive: 72%
18,Cc1ccc(CNC(=O)CN2C(=O)COc3ccc(S(=O)(=O)N4CCC(C)CC4)cc32)cc1,inactive: 116%
19,CC(C)(C)n1nnnc1C(c1ccc2ncccc2c1)N1CCc2ccccc21 (stereo not given),inactive: 111%
20,CCN1C(=O)c2ccccc2S(=O)(=O)c2ccc(C(=O)NCc3ccc(F)cc3)cc21,inactive: 81%
21,O=C(O)CC1SC(=Nc2ccc(O)cc2)NC1=O (stereo not given),inactive: 98%
22,CSc1cccc(NC(=O)c2ccc3c(c2)CCCN3S(C)(=O)=O)c1,inactive: 74%
23,Cc1ccc(NC(=O)Cc2coc3c(C)c(C)ccc23)c(C)c1,inactive: 99%

row,Structure (SMILES),survival
1,Cc1ccc(-n2cc(C(=O)OCc3ccc(Cl)cc3)c3ccccc3c2=O)cc1,inactive: 74%
2,O=C(O)CC(NC(=O)Cc1ccccc1)c1ccccc1 (stereo not given),inactive: 98%
3,CCCCCCn1c(/C=C/c2ccccc2)nc2ccccc21,active: 0%
4,COc1ccc(NC(=O)c2ccc3[nH]c(C)cc(=O)c3c2)cc1,inactive: 88%
5,CCN(CC)c1ccc(-c2nc(-c3ccccn3)no2)cc1[N+](=O)[O-],inactive: 79%
6,COC(=O)C1CCN(c2csc3ccc(C)cc3c2=O)CC1,inactive: 71%
7,CCN(CCCNC(=O)c1ccc(Sc2ccc(Cl)cc2)c(NC(C)=O)c1)c1cccc(C)c1,inactive: 72%
8,CCc1nn(CCCC(=O)NCc2ccc(OC)c(OC)c2)c(=O)c2cc3occc3n12,inactive: 76%
9,Cc1ccc(C)c(NC(=O)CN(Cc2ccccc2)S(=O)(=O)c2ccc3nc(C)sc3c2)c1,inactive: 66%
10,c1ccc(N2CCN(c3ncnc4c3nc3n4CCCCC3)CC2)cc1,inactive: 72%
11,Cc1ccc(-n2ncc3c(NCc4ccccc4)ncnc32)cc1C,inactive: 67%
12,Cc1cc(Br)ccc1NC(=O)c1sc2ncn(Cc3ccccc3Cl)c(=O)c2c1C,inactive: 59%
13,COc1cc(C2Oc3nc(SC)nnc3-c3ccccc3N2C(C)=O)cc(Cl)c1OC (stereo not given),inactive: 70%
14,CCS(=O)(=O)Nc1ccc(Cc2ccncc2)cc1,inactive: 106%
15,NCc1oc(-c2ccccc2)cc1C(=O)O,inactive: 97%
16,O=C(CSc1oc(-c2ccco2)nc1S(=O)(=O)c1ccc(Br)cc1)c1ccc(Cl)cc1,inactive: 61%
17,CC1CCN(S(=O)(=O)c2cccc(C(=O)N(C)C3(C)CCS(=O)(=O)C3)c2)CC1 (stereo not given),inactive: 84%
18,Cc1cc(C)cc(NC(=O)C2CCN(c3nc(C)cc(C)n3)CC2)c1,inactive: 106%
19,Cc1cccc(NC(=O)CCS(=O)(=O)c2cc(Br)cc3c2N(C(=O)C2CC2)CC3)c1C,inactive: 80%
20,CC1=C(C(=O)Nc2cccnc2)C(c2ccc(F)cc2)n2nc(SCc3ccccc3)nc2N1 (stereo not given),inactive: 86%
21,CCN1C(=O)C2C(c3ccccc3O)NC(Cc3c[nH]c4ccccc34)(C(=O)O)C2C1=O (stereo not given),inactive: 95%
